# Measured values from the supplement of paper PMC8728848.
# The other results are listed elsewhere or left out.
# B1: Cohesin-mDCIR (Macaca mulatta) (protein)
# chain: GLDDLDAVRIKVDTVNAKPGDTVRIPVRFSGIPSKGIANCDFVYSYDPNVLEIIEIEPGDIIVDPNPDKSFDTAVYPDRKIIVFLFAEDSGTGAYAITKDGVFATIVAKVKEGAPNGLSVIKFVEVGGFANNDLVEQKTQFFDGGVNVGDTTEPATPTTPVTTPTTTDDLDAASFQKYSQLLEKMTTKDLVHTTLECVKKNMTTEETAWSCCPKNWKPFSSNCYFISTESASWQKSEKDCARMEAHLLVINTREEQDFIFQNLQEESAYFVGLSDPEGQRHWQWVDRTPYNESSTFWHPHEPSDPDERCVVLNFRKTPKRWGWNDVHCIVHQRSVCEMMKIHLHHHHHH
# Assays:
# Test in all cases: glycan array binding signal (z-score within array); higher = stronger binding
# Conditions in all cases: glycan notation: IUPAC condensed, linker removed
# GlcNAc(b1-3)Man = biological target: GlcNAc(b1-3)Man
# How it was run: (§1)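 The Consortium for Functional Glycomics database supplied 3228 glycan arrays, of which those lacking an available protein sequence were dropped. The binding signal, a within-array Z-score, was averaged across arrays of the same protein sequence and across linkers. Negative scores can be read as non-binding.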
# [1] = biological target: GlcNAc(b1-3)[GlcNAc(b1-4)][GlcNAc(b1-6)]GlcNAc
# How it was run: as §1
# [2] = biological target: GlcNAc(b1-3)[GlcNAc(b1-6)]Gal(b1-4)GlcNAc
# How it was run: as §1
# [3] = biological target: GlcNAc(b1-3)[GlcNAc(b1-6)]GalNAc
# How it was run: as §1
# [4] = biological target: GlcNAc(b1-4)Gal(b1-4)GlcNAc
# How it was run: as §1
# GlcNAc(b1-4)GlcNAc = biological target: GlcNAc(b1-4)GlcNAc
# How it was run: as §1
# [5] = biological target: GlcNAc(b1-4)GlcNAc(b1-4)GlcNAc
# How it was run: as §1
# [6] = biological target: GlcNAc(b1-4)GlcNAc(b1-4)GlcNAc(b1-4)GlcNAc(b1-4)GlcNAc
# How it was run: as §1
# [7] = biological target: GlcNAc(b1-4)GlcNAc(b1-4)GlcNAc(b1-4)GlcNAc(b1-4)GlcNAc(b1-4)GlcNAc
# How it was run: as §1
# [8] = biological target: GlcNAc(b1-4)[GlcNAc(b1-6)]GalNAc
# How it was run: as §1
# [9] = biological target: GlcNAc(b1-6)Gal(b1-4)GlcNAc
# How it was run: as §1
# GlcNAc(b1-6)GalNAc = biological target: GlcNAc(b1-6)GalNAc
# How it was run: as §1
# [10] = biological target: GlcNAc6S(b1-3)Gal(b1-4)GlcNAc
# How it was run: as §1
# Kdn(a2-3)Gal(b1-3)GalNAc = biological target: Kdn(a2-3)Gal(b1-3)GalNAc
# How it was run: as §1
# Kdn(a2-3)Gal(b1-3)GlcNAc = biological target: Kdn(a2-3)Gal(b1-3)GlcNAc
# How it was run: as §1
# Kdn(a2-3)Gal(b1-4)Glc = biological target: Kdn(a2-3)Gal(b1-4)Glc
# How it was run: as §1
# Kdn(a2-3)Gal(b1-4)GlcNAc = biological target: Kdn(a2-3)Gal(b1-4)GlcNAc
# How it was run: as §1
# [11] = biological target: Kdn(a2-3)Gal(b1-4)[Fuc(a1-3)]GlcNAc
# How it was run: as §1
# Kdn(a2-6)Gal(b1-4)GlcNAc = biological target: Kdn(a2-6)Gal(b1-4)GlcNAc
# How it was run: as §1
# [12] = biological target: Man(a1-2)Man(a1-2)Man(a1-3)Man
# How it was run: as §1
# [13] = biological target: Man(a1-2)Man(a1-2)Man(a1-6)[Man(a1-3)]Man
# How it was run: as §1
# Man(a1-2)Man(a1-3)Man = biological target: Man(a1-2)Man(a1-3)Man
# How it was run: as §1
# [14] = biological target: Man(a1-2)Man(a1-3)[Man(a1-2)Man(a1-6)]Man
# How it was run: as §1
# [15] = biological target: Man(a1-2)Man(a1-3)[Man(a1-2)Man(a1-6)]Man(a1-6)[Man(a1-2)Man(a1-2)Man(a1-3)]Man
# How it was run: as §1
# [16] = biological target: Man(a1-2)Man(a1-3)[Man(a1-2)Man(a1-6)]Man(a1-6)[Man(a1-2)Man(a1-2)Man(a1-3)]Man(b1-4)GlcNAc(b1-4)GlcNAc
# How it was run: as §1
# [17] = biological target: Man(a1-2)Man(a1-3)[Man(a1-6)]Man(a1-6)[Man(a1-2)Man(a1-3)]Man(b1-4)GlcNAc(b1-4)GlcNAc
# How it was run: as §1
# [18] = biological target: Man(a1-2)Man(a1-6)[Man(a1-3)]Man(a1-6)[Man(a1-2)Man(a1-2)Man(a1-3)]Man
# How it was run: as §1
# [19] = biological target: Man(a1-2)Man(a1-6)[Man(a1-3)]Man(a1-6)[Man(a1-2)Man(a1-2)Man(a1-3)]Man(b1-4)GlcNAc(b1-4)GlcNAc
# How it was run: as §1
# Man(a1-3)[Man(a1-6)]Man = biological target: Man(a1-3)[Man(a1-6)]Man
# How it was run: as §1
# [20] = biological target: Man(a1-3)[Man(a1-6)]Man(a1-6)[Man(a1-2)Man(a1-3)]Man(b1-4)GlcNAc(b1-4)GlcNAc
# How it was run: as §1
# [21] = biological target: Man(a1-3)[Man(a1-6)]Man(a1-6)[Man(a1-3)]Man
# How it was run: as §1
# [22] = biological target: Man(a1-3)[Man(a1-6)]Man(a1-6)[Man(a1-3)]Man(b1-4)GlcNAc(b1-4)GlcNAc
# How it was run: as §1
# [23] = biological target: Man(a1-3)[Man(a1-6)]Man(b1-4)GlcNAc(b1-4)GlcNAc
# How it was run: as §1
# [24] = biological target: Man(a1-3)[Man(a1-6)]Man(b1-4)GlcNAc(b1-4)[Fuc(a1-6)]GlcNAc
# How it was run: as §1
# Man(a1-6)Man = biological target: Man(a1-6)Man
# How it was run: as §1
# Man(b1-4)GlcNAc = biological target: Man(b1-4)GlcNAc
# How it was run: as §1
# MurNAc(b1-4)GlcNAc = biological target: MurNAc(b1-4)GlcNAc
# How it was run: as §1
# Neu5Ac(a2-3)Gal = biological target: Neu5Ac(a2-3)Gal
# How it was run: as §1
binder,measurement,setting,value
B1,glycan array binding signal (z-score),GlcNAc(b1-3)Man,-0.298
same,glycan array binding signal (z-score),[1],-0.38
same,glycan array binding signal (z-score),[2],-0.303
same,glycan array binding signal (z-score),[3],-0.253
same,glycan array binding signal (z-score),[4],-0.265
same,glycan array binding signal (z-score),GlcNAc(b1-4)GlcNAc,-0.363
same,glycan array binding signal (z-score),[5],-0.437
same,glycan array binding signal (z-score),[6],-0.295
same,glycan array binding signal (z-score),[7],-0.361
same,glycan array binding signal (z-score),[8],-0.247
same,glycan array binding signal (z-score),[9],-0.393
same,glycan array binding signal (z-score),GlcNAc(b1-6)GalNAc,1.02
same,glycan array binding signal (z-score),[10],-0.133
same,glycan array binding signal (z-score),Kdn(a2-3)Gal(b1-3)GalNAc,-0.439
same,glycan array binding signal (z-score),Kdn(a2-3)Gal(b1-3)GlcNAc,-0.407
same,glycan array binding signal (z-score),Kdn(a2-3)Gal(b1-4)Glc,-0.454
same,glycan array binding signal (z-score),Kdn(a2-3)Gal(b1-4)GlcNAc,-0.393
same,glycan array binding signal (z-score),[11],-0.343
same,glycan array binding signal (z-score),Kdn(a2-6)Gal(b1-4)GlcNAc,-0.464
same,glycan array binding signal (z-score),[12],-0.156
same,glycan array binding signal (z-score),[13],-0.45
same,glycan array binding signal (z-score),Man(a1-2)Man(a1-3)Man,-0.352
same,glycan array binding signal (z-score),[14],-0.268
same,glycan array binding signal (z-score),[15],-0.438
same,glycan array binding signal (z-score),[16],-0.412
same,glycan array binding signal (z-score),[17],-0.288
same,glycan array binding signal (z-score),[18],-0.216
same,glycan array binding signal (z-score),[19],-0.443
same,glycan array binding signal (z-score),Man(a1-3)[Man(a1-6)]Man,-0.342
same,glycan array binding signal (z-score),[20],-0.416
same,glycan array binding signal (z-score),[21],-0.39
same,glycan array binding signal (z-score),[22],-0.439
same,glycan array binding signal (z-score),[23],-0.133
same,glycan array binding signal (z-score),[24],0.271
same,glycan array binding signal (z-score),Man(a1-6)Man,0.943
same,glycan array binding signal (z-score),Man(b1-4)GlcNAc,-0.42
same,glycan array binding signal (z-score),MurNAc(b1-4)GlcNAc,-0.469
same,glycan array binding signal (z-score),Neu5Ac(a2-3)Gal,-0.068
